The source of these data is PMC5062570 (Nature Communications, 2016).

Several values for one entry are separate records, joined by “and”; a condition that tells them apart may be missing. Equal values may be shown once. Read-outs that look alike come from different tables or passages of the source.

Assay [1] addresses PF-7802-labelled proteins in ARPE-19 cells (Homo sapiens, UniProt P62753). The settings on record: protein RPS6 40S ribosomal protein S6, P62753.
For assay [2], the target named is T1, PF-7802-labelled proteins in ARPE-19 cells (Homo sapiens, UniProt P40926).
T1 sequence (P40926 25-338): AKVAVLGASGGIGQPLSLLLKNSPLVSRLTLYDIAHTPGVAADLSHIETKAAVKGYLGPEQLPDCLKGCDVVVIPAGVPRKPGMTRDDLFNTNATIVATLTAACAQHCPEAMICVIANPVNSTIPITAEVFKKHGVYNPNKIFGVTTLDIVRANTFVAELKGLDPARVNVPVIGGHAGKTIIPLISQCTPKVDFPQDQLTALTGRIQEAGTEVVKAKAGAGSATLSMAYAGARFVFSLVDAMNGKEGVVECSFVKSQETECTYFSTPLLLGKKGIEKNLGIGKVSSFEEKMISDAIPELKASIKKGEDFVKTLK
The settings on record: for Median SILAC Ratio (Heavy/Light): protein MDH2 Malate dehydrogenase, mitochondrial (P40926), replicates in separate columns.

Assay [3] deals with T2, PF-7802-labelled proteins in ARPE-19 cells (Homo sapiens, UniProt P26006).
T2 sequence (P26006 33-1051): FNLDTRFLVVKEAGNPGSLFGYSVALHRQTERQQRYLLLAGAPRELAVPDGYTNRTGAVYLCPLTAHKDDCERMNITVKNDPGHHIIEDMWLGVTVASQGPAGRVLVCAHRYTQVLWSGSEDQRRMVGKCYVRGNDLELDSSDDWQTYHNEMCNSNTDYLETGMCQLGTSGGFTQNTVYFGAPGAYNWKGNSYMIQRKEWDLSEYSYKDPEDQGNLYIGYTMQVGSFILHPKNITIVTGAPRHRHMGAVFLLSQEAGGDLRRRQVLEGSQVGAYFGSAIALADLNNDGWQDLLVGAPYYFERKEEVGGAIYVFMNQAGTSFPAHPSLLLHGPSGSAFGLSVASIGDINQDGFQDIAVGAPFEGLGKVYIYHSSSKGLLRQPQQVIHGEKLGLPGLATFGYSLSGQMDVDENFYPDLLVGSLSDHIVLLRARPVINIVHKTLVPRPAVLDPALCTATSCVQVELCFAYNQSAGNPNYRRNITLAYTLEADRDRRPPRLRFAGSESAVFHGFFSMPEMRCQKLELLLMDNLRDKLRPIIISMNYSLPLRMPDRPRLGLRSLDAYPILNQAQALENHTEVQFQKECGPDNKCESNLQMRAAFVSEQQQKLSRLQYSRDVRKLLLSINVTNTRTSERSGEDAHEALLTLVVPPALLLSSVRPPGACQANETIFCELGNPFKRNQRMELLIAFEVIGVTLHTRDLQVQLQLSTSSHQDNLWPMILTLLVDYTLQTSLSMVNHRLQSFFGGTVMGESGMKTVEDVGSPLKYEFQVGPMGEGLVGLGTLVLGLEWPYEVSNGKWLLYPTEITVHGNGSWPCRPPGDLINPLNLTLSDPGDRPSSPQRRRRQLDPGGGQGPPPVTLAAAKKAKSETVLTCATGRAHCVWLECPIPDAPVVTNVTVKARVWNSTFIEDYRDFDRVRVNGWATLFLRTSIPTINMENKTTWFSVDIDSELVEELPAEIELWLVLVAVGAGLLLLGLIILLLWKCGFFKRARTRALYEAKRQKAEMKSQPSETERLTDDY
The note with it: for Median SILAC Ratio (Heavy/Light): protein ITGA3 Integrin alpha-3 (P26006), one column per replicate.

Assay [4] has as its target PF-7802-labelled proteins in ARPE-19 cells (Homo sapiens, UniProt Q16778).
For assay [5], the target named is PF-7802-labelled proteins in ARPE-19 cells (Homo sapiens, UniProt P25705).
In assay [6] the target is PF-7802-labelled proteins in ARPE-19 cells (Homo sapiens, UniProt P02545).
Sequence of UniProt P02545 (P02545 whole entry): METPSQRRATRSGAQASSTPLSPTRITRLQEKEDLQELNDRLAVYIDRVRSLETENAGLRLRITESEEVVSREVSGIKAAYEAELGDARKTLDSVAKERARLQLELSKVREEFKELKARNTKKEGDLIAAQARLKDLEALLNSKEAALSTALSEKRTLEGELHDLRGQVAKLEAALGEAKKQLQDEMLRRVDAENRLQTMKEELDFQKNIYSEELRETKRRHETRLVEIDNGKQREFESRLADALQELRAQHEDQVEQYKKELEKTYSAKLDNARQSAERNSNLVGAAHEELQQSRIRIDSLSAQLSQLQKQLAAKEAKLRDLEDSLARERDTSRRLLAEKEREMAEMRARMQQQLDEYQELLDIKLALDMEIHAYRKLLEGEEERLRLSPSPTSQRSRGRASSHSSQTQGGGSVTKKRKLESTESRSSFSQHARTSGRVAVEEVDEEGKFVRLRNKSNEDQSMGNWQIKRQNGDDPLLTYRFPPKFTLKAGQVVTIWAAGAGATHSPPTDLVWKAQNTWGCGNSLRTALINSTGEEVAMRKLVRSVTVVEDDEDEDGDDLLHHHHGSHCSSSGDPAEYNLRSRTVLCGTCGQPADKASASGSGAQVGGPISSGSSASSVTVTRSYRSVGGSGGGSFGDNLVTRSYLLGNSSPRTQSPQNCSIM
Assay [7] has as its target PF-7802-labelled proteins in ARPE-19 cells (Homo sapiens, UniProt P46779). The note with it: protein RPL28 60S ribosomal protein L28, P46779.
Assay [8] deals with PF-7802-labelled proteins in ARPE-19 cells (Homo sapiens, UniProt Q16790). The settings on record: protein CA9 Carbonic anhydrase 9 (Q16790).
The target in assay [9] is PF-7802-labelled proteins in ARPE-19 cells (Homo sapiens, UniProt O14745).
Sequence of UniProt O14745 (O14745 whole entry): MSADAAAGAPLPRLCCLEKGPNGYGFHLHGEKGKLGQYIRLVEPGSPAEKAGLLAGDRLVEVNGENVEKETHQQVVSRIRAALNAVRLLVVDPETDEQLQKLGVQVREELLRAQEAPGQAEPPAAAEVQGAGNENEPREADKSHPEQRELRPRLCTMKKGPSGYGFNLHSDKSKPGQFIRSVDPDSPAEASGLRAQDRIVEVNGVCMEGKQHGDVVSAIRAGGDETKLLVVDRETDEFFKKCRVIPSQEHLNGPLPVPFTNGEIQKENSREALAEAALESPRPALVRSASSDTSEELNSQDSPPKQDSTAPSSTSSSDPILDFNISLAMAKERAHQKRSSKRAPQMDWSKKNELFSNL
Assay [10] has as its target PF-7802-labelled proteins in ARPE-19 cells (Homo sapiens, UniProt Q16647). The note with it: protein PTGIS Prostacyclin synthase, Q16647.
Sequence of UniProt Q16647 (Q16647 whole entry): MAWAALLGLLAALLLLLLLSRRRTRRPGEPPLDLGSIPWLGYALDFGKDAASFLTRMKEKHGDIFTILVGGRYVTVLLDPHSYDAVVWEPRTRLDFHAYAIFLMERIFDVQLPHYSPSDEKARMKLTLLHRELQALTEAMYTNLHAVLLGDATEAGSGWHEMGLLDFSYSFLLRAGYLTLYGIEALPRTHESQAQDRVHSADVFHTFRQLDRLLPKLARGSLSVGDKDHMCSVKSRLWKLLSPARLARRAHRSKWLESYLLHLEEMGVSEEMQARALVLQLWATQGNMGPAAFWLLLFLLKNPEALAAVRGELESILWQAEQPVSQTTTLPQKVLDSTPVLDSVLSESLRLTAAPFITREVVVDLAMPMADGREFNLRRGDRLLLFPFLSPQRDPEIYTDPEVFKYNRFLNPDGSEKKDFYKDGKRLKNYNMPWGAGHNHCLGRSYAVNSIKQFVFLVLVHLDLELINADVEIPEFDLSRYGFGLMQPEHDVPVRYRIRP
The target of assay [11] is PF-7802-labelled proteins in ARPE-19 cells (Homo sapiens, UniProt O95232). The note with it: […]; replicates in separate columns.
Sequence of UniProt O95232 (O95232 whole entry): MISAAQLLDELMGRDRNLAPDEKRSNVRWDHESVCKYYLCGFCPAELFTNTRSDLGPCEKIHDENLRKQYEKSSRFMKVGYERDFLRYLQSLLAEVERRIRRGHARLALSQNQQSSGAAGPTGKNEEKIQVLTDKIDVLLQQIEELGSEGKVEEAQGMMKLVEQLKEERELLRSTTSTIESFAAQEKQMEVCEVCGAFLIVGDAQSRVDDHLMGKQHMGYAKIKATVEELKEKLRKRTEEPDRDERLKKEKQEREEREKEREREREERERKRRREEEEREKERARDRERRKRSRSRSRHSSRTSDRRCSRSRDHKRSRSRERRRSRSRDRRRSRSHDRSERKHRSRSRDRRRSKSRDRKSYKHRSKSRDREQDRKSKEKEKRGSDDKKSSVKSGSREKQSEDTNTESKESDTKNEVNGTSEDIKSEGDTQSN
The target in assay [12] is PF-7802-labelled proteins in ARPE-19 cells (Homo sapiens, UniProt P57721). The note with it: protein PCBP3 Poly(rC)-binding protein 3 (P57721); replicates in separate columns.
Sequence of UniProt P57721 (P57721 whole entry): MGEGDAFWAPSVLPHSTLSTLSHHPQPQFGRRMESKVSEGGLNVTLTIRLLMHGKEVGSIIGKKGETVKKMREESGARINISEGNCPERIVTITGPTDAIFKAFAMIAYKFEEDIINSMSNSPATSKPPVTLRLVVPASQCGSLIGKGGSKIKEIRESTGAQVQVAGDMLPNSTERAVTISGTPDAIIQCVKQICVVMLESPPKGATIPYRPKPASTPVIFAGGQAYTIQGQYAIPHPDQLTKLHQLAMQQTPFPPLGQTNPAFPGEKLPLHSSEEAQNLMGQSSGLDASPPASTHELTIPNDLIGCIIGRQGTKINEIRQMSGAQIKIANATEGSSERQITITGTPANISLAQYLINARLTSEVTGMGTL
For assay [13], the target named is PF-7802-labelled proteins in ARPE-19 cells (Homo sapiens, UniProt P06737). The settings on record: protein PYGL Glycogen phosphorylase, liver form, P06737.
Sequence of UniProt P06737 (P06737 whole entry): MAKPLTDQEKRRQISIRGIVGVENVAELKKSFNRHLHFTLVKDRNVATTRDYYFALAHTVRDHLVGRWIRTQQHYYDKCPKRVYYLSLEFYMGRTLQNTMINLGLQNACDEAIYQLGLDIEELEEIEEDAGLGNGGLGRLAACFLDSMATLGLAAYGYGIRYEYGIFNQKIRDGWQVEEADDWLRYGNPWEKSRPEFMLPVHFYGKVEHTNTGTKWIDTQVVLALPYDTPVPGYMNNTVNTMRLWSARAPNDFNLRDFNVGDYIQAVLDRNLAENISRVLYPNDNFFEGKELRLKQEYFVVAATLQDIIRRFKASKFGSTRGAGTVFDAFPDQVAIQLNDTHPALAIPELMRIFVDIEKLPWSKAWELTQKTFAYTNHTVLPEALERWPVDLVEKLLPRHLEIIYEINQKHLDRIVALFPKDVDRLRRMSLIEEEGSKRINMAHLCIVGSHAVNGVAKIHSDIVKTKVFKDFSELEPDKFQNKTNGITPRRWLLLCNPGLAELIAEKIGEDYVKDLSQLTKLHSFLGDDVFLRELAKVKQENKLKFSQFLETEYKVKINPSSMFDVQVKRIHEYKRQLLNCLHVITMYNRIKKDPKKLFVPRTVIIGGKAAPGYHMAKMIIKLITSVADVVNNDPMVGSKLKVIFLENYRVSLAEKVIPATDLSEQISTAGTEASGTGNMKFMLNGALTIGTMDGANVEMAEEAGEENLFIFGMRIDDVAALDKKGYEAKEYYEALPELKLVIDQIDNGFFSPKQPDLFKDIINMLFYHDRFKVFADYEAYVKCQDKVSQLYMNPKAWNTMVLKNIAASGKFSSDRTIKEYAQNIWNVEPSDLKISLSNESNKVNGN
In assay [14] the target is PF-7802-labelled proteins in ARPE-19 cells (Homo sapiens, UniProt P04080). The settings on record: protein CSTB Cystatin-B (P04080).
Sequence of UniProt P04080 (P04080 whole entry, the tested form may be a part): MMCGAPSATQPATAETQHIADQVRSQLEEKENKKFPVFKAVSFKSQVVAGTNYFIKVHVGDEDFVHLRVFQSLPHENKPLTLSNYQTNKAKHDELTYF
In assay [15] the target is PF-7802-labelled proteins in ARPE-19 cells (Homo sapiens, UniProt Q9NVI7). The note with it: protein ATAD3A ATPase family AAA domain-containing protein 3A (Q9NVI7).
Sequence of UniProt Q9NVI7 (Q9NVI7 whole entry, the tested form may be a part): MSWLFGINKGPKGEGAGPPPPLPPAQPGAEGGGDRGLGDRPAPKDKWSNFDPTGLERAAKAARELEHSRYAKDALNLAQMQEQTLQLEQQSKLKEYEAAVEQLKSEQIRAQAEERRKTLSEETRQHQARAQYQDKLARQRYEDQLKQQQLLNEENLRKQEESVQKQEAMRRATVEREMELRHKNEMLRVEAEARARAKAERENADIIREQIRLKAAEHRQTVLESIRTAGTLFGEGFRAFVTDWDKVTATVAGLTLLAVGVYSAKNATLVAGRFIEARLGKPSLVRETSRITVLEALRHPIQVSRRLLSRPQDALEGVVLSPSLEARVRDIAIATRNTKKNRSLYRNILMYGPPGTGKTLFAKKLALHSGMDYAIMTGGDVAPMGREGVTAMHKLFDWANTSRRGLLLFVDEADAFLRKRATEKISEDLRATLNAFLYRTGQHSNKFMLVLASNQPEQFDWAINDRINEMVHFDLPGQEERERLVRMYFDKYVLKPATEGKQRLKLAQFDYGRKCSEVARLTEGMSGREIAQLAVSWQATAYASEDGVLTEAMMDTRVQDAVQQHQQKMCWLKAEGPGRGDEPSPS
For assay [16], the target named is PF-7802-labelled proteins in ARPE-19 cells (Homo sapiens, UniProt P02511). The note with it: protein CRYAB Alpha-crystallin B chain (P02511).
Sequence of UniProt P02511 (P02511 whole entry): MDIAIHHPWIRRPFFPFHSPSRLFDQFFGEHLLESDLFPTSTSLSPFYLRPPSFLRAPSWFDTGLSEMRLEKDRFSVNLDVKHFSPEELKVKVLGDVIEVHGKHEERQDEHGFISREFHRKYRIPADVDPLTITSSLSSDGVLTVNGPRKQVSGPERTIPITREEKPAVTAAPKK
The target in assay [17] is PF-7802-labelled proteins in ARPE-19 cells (Homo sapiens, UniProt Q00765).
Sequence of UniProt Q00765 (Q00765 whole entry): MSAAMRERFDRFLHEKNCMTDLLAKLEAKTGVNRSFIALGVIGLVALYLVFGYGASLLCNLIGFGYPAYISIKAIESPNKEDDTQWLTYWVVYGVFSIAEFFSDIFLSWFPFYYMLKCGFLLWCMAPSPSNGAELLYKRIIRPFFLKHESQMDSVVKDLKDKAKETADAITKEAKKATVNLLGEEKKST

For `CNC1CCN(C(=O)C[C@@H](Cc2ccccc2)C(=O)N[C@@H](CSC)C(=O)N[C@@H](CC2CCCCC2)[C@@H](O)C(=O)OC(C)C)CC1` [CP-108671, reference compound], the “Median SILAC Ratio (Heavy/Light)” value is 0.8855 in assay [1]; 1.243 in [2]; 1.057 in assay [3]; 1.047 and 1.132 in assay [4] (protein HIST2H2BE Histone H2B type 2-E (Q16778), one column per replicate); 1.108 and 0.8571 in assay [5] (protein ATP5A1 ATP synthase subunit alpha, mitochondrial (P25705)); 1.17 in assay [6] (protein LMNA Prelamin-A/C (P02545), replicates in separate columns). The “Median SILAC Ratio (Heavy/Light)” value in assay [7] was found to be 1.59; in [8], 1.257; in assay [9] (SLC9A3R1 Na(+)/H(+) exchange regulatory cofactor NHE-RF1 (O14745)) it was 1.105. In addition, the “SILAC ratio (DMSO/CP-108671)” value in assay [2] (P40926 MDH2 Malate dehydrogenase, mitochondrial) came to 0.80; in assay [3] (P26006 ITGA3 Integrin alpha-3), 0.95; in assay [4] (Q16778 HIST2H2BE Histone H2B type 2-E), 0.95; in assay [5] (P25705 ATP5A1 ATP synthase subunit alpha, mitochondrial) it was 0.91; in [6] (P02545 LMNA Prelamin-A/C), 0.85.
For `Cc1cc([C@H]2C[C@H]3[C@@H](C)SC(N)=N[C@@]3(c3ccc(F)cc3F)CO2)on1` [PF-9283], the “Median SILAC Ratio (Heavy/Light)” value was 0.9748 in assay [1]; 1.856 in [10]; 1.345 in [2]; 0.7405 in [11]; 1.082 and 0.7141 in [3]; 3.513 in assay [12]. Further, the “Median SILAC Ratio (Heavy/Light)” value was 1.2659 in assay [13]; 56.1629 in assay [14]; 1.513 in assay [8]; 1.1156 in assay [15]; 1.448 in [16]; 1.07 and 1.227 in [9]. In assay [17], the “Median SILAC Ratio (Heavy/Light)” value is on record as 0.783.
